Results are given in words; binding and its absence hold for the method and conditions named. In cells and extracts the contact can be indirect. Some binding calls cover weakened binding; strength is not graded here. For some assays here: Where a sequence is shown, tags or fusion partners need not be part of it.
How the values were obtained:
[1] = molecular target: FLAG-tagged wild-type human BCL-RAMBO (1–485) (human) (UniProt Q9BXK5); experiment: co-IP; 293T cells co-transfected with FLAG-BCL-RAMBO, VSV-GRP75 and VSV-VDAC1 together for 18 h; anti-FLAG antibody beads; Western blotting
[2] = molecular target: T1, FLAG-tagged BCL-RAMBO (1–223) (human) (UniProt Q9BXK5); experiment: co-IP; 293T cells co-transfected with a FLAG-tagged and a VSV-tagged protein for 18 h; 0.2% NP-40 lysis buffer (150 mM NaCl, 20 mM Tris-HCl pH 7.4, 10% glycerol); anti-FLAG M2 agarose beads, 4 °C, 3 h; Western blotting
T1 sequence: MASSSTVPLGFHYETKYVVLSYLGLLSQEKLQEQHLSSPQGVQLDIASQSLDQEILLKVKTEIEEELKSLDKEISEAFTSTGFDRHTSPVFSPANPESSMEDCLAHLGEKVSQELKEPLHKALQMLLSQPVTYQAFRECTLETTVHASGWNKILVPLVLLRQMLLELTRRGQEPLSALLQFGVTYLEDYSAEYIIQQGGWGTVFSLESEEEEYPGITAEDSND

Protein sequences, listed by entry. Tags and fused reporters are not part of them. Residues count along the entry.
UniProt P38646, residues 47-679: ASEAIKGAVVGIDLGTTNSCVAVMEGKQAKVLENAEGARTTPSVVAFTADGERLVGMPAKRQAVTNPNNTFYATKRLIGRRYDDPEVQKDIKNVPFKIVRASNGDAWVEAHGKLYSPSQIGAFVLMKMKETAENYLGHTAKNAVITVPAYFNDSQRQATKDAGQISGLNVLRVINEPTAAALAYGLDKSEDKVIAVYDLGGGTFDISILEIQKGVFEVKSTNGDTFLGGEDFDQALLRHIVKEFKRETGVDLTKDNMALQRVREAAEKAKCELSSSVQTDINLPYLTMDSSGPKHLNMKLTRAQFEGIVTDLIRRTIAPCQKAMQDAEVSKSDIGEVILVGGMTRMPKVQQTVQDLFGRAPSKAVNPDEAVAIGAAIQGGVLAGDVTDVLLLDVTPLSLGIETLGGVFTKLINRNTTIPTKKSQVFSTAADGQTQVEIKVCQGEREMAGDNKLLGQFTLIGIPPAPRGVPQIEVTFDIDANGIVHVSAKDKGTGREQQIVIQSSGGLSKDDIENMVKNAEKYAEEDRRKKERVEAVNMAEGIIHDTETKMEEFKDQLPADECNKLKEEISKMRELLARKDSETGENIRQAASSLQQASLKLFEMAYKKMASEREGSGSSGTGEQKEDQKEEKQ

[3] = molecular target: FLAG-tagged BCL-RAMBO (1–459) (human) (UniProt Q9BXK5); experiment: as above
[4] = molecular target: FLAG-tagged BCL-RAMBO (205–459) (human) (UniProt Q9BXK5); experiment: as above
[5] = molecular target: FLAG-tagged wild-type human BCL-RAMBO (1–485) (human) (UniProt Q9BXK5); experiment: as above

In the case of “VSV-GRP75, full-length GRP75 (1–679) (from UniProt P38646 47-679)”, the binding [1] is reported as “binds”, the binding [2] is reported as “no binding” and the binding [3] is reported as “binds”. The binding [4] was “binds” and the binding [5] was “binds”.

Source: article PMC10462657
